Assay results from the antibiotic and cytotoxicity screens of Wong et al. (2023).
The other results are listed elsewhere or left out.

test system: S. aureus RN4220; experiment: growth inhibition call (relative growth <= 0.2); conditions: 50 µM

Growth inhibition call, inactive:
C[C@@H]1CN([C@H](C)CO)C(=O)Cc2cc(NS(=O)(=O)c3cn(C)cn3)ccc2O[C@@H]1CN(C)S(=O)(=O)c1cccs1
COc1ccccc1C#Cc1ccc2c(c1)O[C@H](CN(C)Cc1cncnc1)[C@@H](C)CN([C@@H](C)CO)S2(=O)=O
Cl.Clc1ccc2c(c1)CCc1cccnc1C2=C1CCNCC1
C[C@@H]1CN([C@H](C)CO)C(=O)c2cc(C#CCN(C)C)cnc2O[C@H]1CN(C)Cc1cccc(C(=O)O)c1
C[C@H](CO)N1C[C@H](C)[C@@H](CN(C)S(=O)(=O)c2ccc(Cl)cc2)OCCCC[C@H](C)Oc2ccc(NC(=O)C3CCCCC3)cc2C1=O
CC(C)NC(=O)Nc1ccc2c(c1)C(=O)N([C@@H](C)CO)C[C@H](C)[C@@H](CN(C)CC1CCCCC1)OCCCC[C@H](C)O2
C[C@H]1CN([C@@H](C)CO)C(=O)c2cc(N(C)C)ccc2O[C@H]1CN(C)S(C)(=O)=O
C=CC[C@H](CC(=O)NCCO)C(=O)N[C@@H](COC(=O)[C@H](CC=C)CC(=O)OC(C)(C)C)Cc1ccccc1
CC1OC(OC2C(O)CC(OC3C(O)CC(OC4CCC5(C)C(CCC6C5CCC5(C)C(C7=CC(=O)OC7)CCC65O)C4)OC3C)OC2C)CC(O)C1O (stereo not given)
CN1CCN(C(=O)C[C@H]2CC[C@H]3[C@H](COc4ccc(NC(=O)c5cscn5)cc4C(=O)N3C)O2)CC1
C[C@@H]1CN([C@H](C)CO)S(=O)(=O)c2ccc(C#C[C@@H](C)O)cc2O[C@@H]1CN(C)C(=O)c1ccncc1
C[C@H]1CN([C@@H](C)CO)C(=O)c2cc(NC(=O)Nc3ccc(F)cc3)ccc2O[C@H]1CN(C)S(=O)(=O)c1cn(C)cn1
C[C@@H]1CN([C@H](C)CO)C(=O)c2cccc(NC(=O)Nc3ccc(F)cc3)c2O[C@H]1CN(C)S(C)(=O)=O
O=C(C[C@@H]1CC[C@H]2[C@@H](COC[C@@H](O)CN2S(=O)(=O)c2ccccc2F)O1)NCc1ccccc1Cl
COc1ccc(S(=O)(=O)N(C)C[C@@H]2Oc3ccc(NS(=O)(=O)c4ccc(C)cc4)cc3CC(=O)N([C@H](C)CO)C[C@@H]2C)cc1
COc1ccc(NC(=O)Nc2ccc3c(c2)C(=O)N([C@@H](C)CO)C[C@@H](C)[C@@H](CN(C)S(=O)(=O)c2ccc(Cl)cc2)OCCCC[C@@H](C)O3)cc1
O=C(N[C@H]1CC[C@H](CC(=O)N2CCOCC2)O[C@H]1CO)c1ccccn1
CN1C(=O)c2cc(NC(=O)c3cnccn3)ccc2OC[C@@H]2O[C@H](CC(=O)N[C@H]3CCN(Cc4ccccc4)C3)CC[C@H]21
COc1ccc(NC(=O)N(C)C[C@@H]2OCCCC[C@@H](C)Oc3ccc(NS(=O)(=O)c4cccs4)cc3C(=O)N([C@H](C)CO)C[C@@H]2C)cc1
C[C@H]1CN([C@@H](C)CO)C(=O)c2cc(-c3ccncc3)cnc2O[C@@H]1CN(C)C(=O)Nc1ccc2c(c1)OCO2
N#Cc1ccc(O)cn1
COc1ccc(S(=O)(=O)N(C)C[C@@H]2OCCCC[C@@H](C)Oc3ccc(NS(=O)(=O)c4ccc(Cl)cc4)cc3C(=O)N([C@H](C)CO)C[C@@H]2C)cc1
O=C(C[C@@H]1CC[C@H]2[C@@H](COC[C@H](O)CN2C(=O)c2cccnc2)O1)NCc1ccc(-c2ccccc2)cc1
C[C@H](CO)N1C[C@H](C)[C@@H](CN(C)S(=O)(=O)c2cccc(C#N)c2)OCc2cnnn2CCCC1=O
C[C@@H]1CCCCO[C@@H](CN(C)C)[C@@H](C)CN([C@H](C)CO)C(=O)c2cc(NC(=O)Nc3cccc4ccccc34)ccc2O1
C[C@H](CO)N1C[C@H](C)[C@H](CN(C)S(=O)(=O)c2ccc(Cl)cc2)OCCCC[C@H](C)Oc2ccc(NC(=O)CCC(F)(F)F)cc2C1=O
C[C@@H]1CN([C@H](C)CO)C(=O)c2cc(C#CC3(O)CCCC3)cnc2O[C@@H]1CN(C)C(=O)C1CCOCC1
COc1cc2ccnc(CCCN)c2cc1OC
C[N+](C)(C)CCCCNC(=O)[C@@H]1C[C@@H]2C(=O)N[C@@H](CCCC[N+](C)(C)C)C(=O)N2[C@@H]1c1cccc(OCCO)c1
C[C@H](CO)N1C[C@H](C)[C@@H](CN(C)C(=O)Nc2cccc3ccccc23)Oc2ccc(NS(=O)(=O)c3cccs3)cc2C1=O
